Laboratory results from paper PMC6919601, “Identification of Plasmodium dipeptidyl aminopeptidase allosteric inhibitors by high throughput screening” (PLoS ONE, 2019).
Several values for one entry are separate records, joined by “and”; a condition that tells them apart may be missing. Equal values may be shown once. Among all 110,000 compounds or so, about 230 (0.21%) showed an effect of 50% or more. The list shows a part of the results.

target: DPAP1 (Plasmodium falciparum, UniProt Q8IIJ9); assay: primary screen, percent inhibition; read by cleavage of a fluorogenic dipeptide substrate; higher = more effect of the substance; parameters: species or system P. falciparum D10 trophozoite lysates; single well
Sequence (Q8IIJ9 whole entry, looked up): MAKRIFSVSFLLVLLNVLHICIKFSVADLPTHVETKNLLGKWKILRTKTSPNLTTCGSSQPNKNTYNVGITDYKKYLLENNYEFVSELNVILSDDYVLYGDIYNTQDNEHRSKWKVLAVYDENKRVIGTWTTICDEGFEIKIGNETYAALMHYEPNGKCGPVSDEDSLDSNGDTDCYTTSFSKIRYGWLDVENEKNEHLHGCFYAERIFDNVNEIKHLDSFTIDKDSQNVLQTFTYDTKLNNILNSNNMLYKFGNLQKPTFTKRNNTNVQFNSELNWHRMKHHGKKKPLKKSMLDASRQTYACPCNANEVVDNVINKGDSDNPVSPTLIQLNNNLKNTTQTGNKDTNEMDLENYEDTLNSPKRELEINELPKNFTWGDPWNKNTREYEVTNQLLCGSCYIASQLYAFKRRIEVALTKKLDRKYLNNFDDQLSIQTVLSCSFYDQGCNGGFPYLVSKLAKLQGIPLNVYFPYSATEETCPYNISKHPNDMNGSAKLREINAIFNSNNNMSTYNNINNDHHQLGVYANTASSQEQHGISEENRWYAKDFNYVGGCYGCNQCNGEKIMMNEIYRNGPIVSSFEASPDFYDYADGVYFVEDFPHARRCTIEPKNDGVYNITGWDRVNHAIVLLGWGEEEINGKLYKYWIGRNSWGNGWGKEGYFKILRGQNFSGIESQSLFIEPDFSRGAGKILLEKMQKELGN
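Also: 30 min substrate incubation versus DMSO and 10 µM JCP410 controls.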

Row | Structure (SMILES) | % Inhibition @ 10 uM
1 | O=C(O)C1Cc2c([nH]c3ccccc23)C2c3ccccc3C(=O)N12 (stereo not shown) | 4.89%
2 | CC(C)Cn1c(NC2CCCCC2)nc2c1c(=O)[nH]c(=O)n2C | -3.41%
3 | O=C(COCc1cc(-c2ccc3c(c2)OCO3)on1)Nc1c2ccccc2nc2ccccc12 | -1.04%
4 | Cc1cccc2sc(NC(=O)CCn3cnnn3)nc12 | -3.07%
5 | O=C1OC(Oc2ccccc2)(c2ccccc2)c2ccccc21 (stereo not shown) | -2.87%
6 | O=C(Cn1ncc2c1-c1ccccc1OC2)Nc1ccc(Cl)cn1 | 0.981%
7 | Cc1ccc(-n2nc(C)c3c2OC(N)=C(C#N)C3c2ccco2)cc1 (stereo not shown) | 0.317%
8 | CCOC(=O)c1c(-c2ccccc2)csc1NC(=O)c1cccs1 | 2.23%
9 | Cn1c(=O)c2c(ncn2CC(=O)NCc2ccc(Cl)cc2)n(C)c1=O | -1.33%
10 | O=C(/C=C/c1cccc([N+](=O)[O-])c1)Nc1ccccc1Cl | 6.14%
11 | Cn1c(=O)n(C)c2c([N+](=O)[O-])ncc(Br)c21 | 2.58%
12 | CC(NC(=O)c1cccc2c1C(=O)N(Cc1cccnc1)C2)c1cccs1 (stereo not shown) | -0.499%
13 | CCOC(=O)c1cc(C)n(CC2CCC(C(=O)Nc3cccc(C)n3)CC2)c1C (stereo not shown) | -0.943%
14 | Cn1c(=O)c2c(nc(Oc3ccc(C#N)cc3)n2Cc2ccccc2Cl)n(C)c1=O | 3.81%
15 | CCN(CC)CCN(CC)Cc1ccc(N(C)C)cc1 | 3.44%
16 | O=C(/C=C/c1cn(-c2ccccc2)nc1-c1cccnc1)c1ccccc1 | -0.339%
17 | NC(=O)NC1CCCCC1 | -0.48%
18 | O=C(NC1C2CC3CC(C2)CC1C3)c1cccc([N+](=O)[O-])c1 (stereo not shown) | 0.162%
19 | Cc1ccc(S(=O)(=O)N2CC(=NN=C(N)N)C2)cc1 | -1.84%
20 | Cc1ccc(CCNC(=O)CNC(=O)c2cc3ccccc3o2)cc1 | -5.1%
21 | CCOc1cc(C(=O)Nc2c3c(nn2-c2ccc(C)cc2)CS(=O)(=O)C3)cc(OCC)c1OCC | 0.849%
22 | Cc1cc(OCC(=O)Nc2ccc(Br)cc2)ccc1Cl | 0.214%
23 | CCC(c1ccccc1)c1c(O)oc2ccccc2c1=O (stereo not shown) | 9.35%
24 | O=C(Nc1ccc(CN2CCOCC2)cc1)c1ccc(Cl)cc1 | 1.83%
25 | Cc1cccc(NC(=O)C2CC(=O)N=C(Nc3ccc(C)c(C)c3)S2)c1 (stereo not shown) | 1.79%

Row | Structure (SMILES) | % Inhibition @ 10 uM
26 | CCc1ccc(OCC(O)CN2CCN(C)CC2)cc1 (stereo not shown) | -0.424%
27 | O=C(NCCO)/C(=C/c1ccc2c(c1)OCO2)NC(=O)c1cccc(Br)c1 | 2.18%
28 | CCC(C)NC(=O)c1ccc2[nH]c(C)c(C)c2c1 (stereo not shown) | 0.92%
29 | O=C(O)c1ccc(/C=C2/NC(=O)N(Cc3ccccc3F)C2=O)cc1 | -0.48%
30 | CCOC(=O)N1CCC(N2CCN(CC)CC2)CC1 | 1.08%
31 | O=C(CCN1C(=O)c2cccc3cccc(c23)C1=O)N1CCCCC1 | 1.55%
32 | COc1ccccc1CNC(=O)CC(c1cccs1)N1Cc2ccccc2C1=O (stereo not shown) | 0.28%
33 | CCc1nn(CC(=O)N2CCN(Cc3ccc4c(c3)OCO4)CC2)c(=O)c2cc3sccc3n12 | 1.8%
34 | O=C1N2CN(C3CCCCC3)CN=C2SC1(CO)CO | -0.357%
35 | COc1ccccc1-c1c(C)nn2c(N3CCC(N4CCCCC4)CC3)cc(C)nc12 | 0.718%
36 | Cc1nn2cc(-c3ccccc3)nc2s1 | -0.0267% and 1.24%
37 | CC1=CC=CN2C(=O)C(Cc3ccc(Cl)cc3)(NC(=O)c3ccccc3Cl)N=C12 (stereo not shown) | 4.85%
38 | CCSc1nnc(NC(=O)C(Cc2ccccc2)n2cccc2)s1 (stereo not shown) | -6.07%
39 | Cc1cc(C(F)(F)F)nn1CC(=O)Nc1ccc(Br)c2cccnc12 | 0.361%
40 | Cc1ccccc1C(=O)Nc1sc2c(c1C(=O)OC(C)C)CCCC2 | -1.1%
41 | COc1cc(/C=C2/NC(=O)N(Cc3ccccc3F)C2=O)cc(Br)c1O | 63%
42 | N#CC1=C(N)Oc2[nH]nc(C(F)(F)F)c2C1c1ccccc1Cl (stereo not shown) | 0.514%
43 | Cc1ccc(C(=O)Nc2ccc(C)c(Cl)c2)s1 | -7.93%
44 | Cc1[nH]c(-c2ccc(F)cc2)cc1C(=O)NCCCOC(C)C | -0.659%
45 | O=C(Cn1cc(C(=O)C(F)(F)F)c2ccccc21)N1CCc2ccccc2C1 | -5.15%
46 | COc1ccc(-c2noc(N(C)CC(=O)NCCCN3CCOCC3)n2)cc1 | 4.33%
47 | CCS(=O)(=O)n1nc(-c2ccc(OC)cc2)nc1N | -2.75%
48 | CCOCCCNC(=O)Nc1nnc(N2CCCC(C)C2)s1 (stereo not shown) | 0.623%
49 | CCc1nn(-c2cc(Cl)nc(-c3ccccc3)n2)c(N)c1C#N | -3.16%
50 | O=[N+]([O-])c1ccccc1S(=O)(=O)N1CCN(Cc2ccccc2)CC1 | 0.986%

Row | Structure (SMILES) | % Inhibition @ 10 uM
51 | CCc1nn(CC(=O)NCCc2ccc(C)cc2)c(=O)c2cc3sccc3n12 | -3.35%
52 | COc1ccc(Oc2nc3ccccc3n3cnnc23)cc1 | -6.22%
53 | CCOC(=O)c1cncc(Br)c1 | 2.62%
54 | CS(=O)(=O)N(CC(=O)Nc1ccc(Br)cc1F)C1CCCCC1 | 1.84%
55 | CCOc1ccccc1CNCc1c(C(=O)O)n(Cc2ccccc2F)c2cc(C)ccc12 | 3.97%
56 | COc1ccccc1/C=C(\NC(=O)c1ccccc1)C(=O)Nc1ccc(Cl)cc1 | 4.01%
57 | CC(NC(=O)C1CCCN(S(C)(=O)=O)C1)c1ccccc1 (stereo not shown) | 0.514%
58 | CN1C(C(=O)NCCN2CCOCC2)=CC(c2ccco2)=NS1(=O)=O | 3.92%
59 | O=C(Nc1ccccc1C(F)(F)F)c1cccnc1Cl | 1.28%
60 | COc1ccc(/C=C2\N=C(c3ccc(Cl)c(Cl)c3)OC2=O)cc1OC | -1.89%
61 | CC(=O)Nc1ccc(NC(=O)/C=C/c2ccccc2)cc1 | -1.92%
62 | Cc1ccc(-c2csc(Nc3ccccn3)n2)cc1 | 2.62%
63 | CCOc1ccc(C2c3c(-c4cc(C)ccc4O)n[nH]c3C(=O)N2Cc2ccco2)cc1 (stereo not shown) | 5.35%
64 | Cc1cccn2c(=O)c3cc(C(=O)NC4CCCC4)c(=N)n(CC4CCCO4)c3nc12 (stereo not shown) | 1.97%
65 | COc1ccc(OCC(=O)Nc2ccc(C#N)cc2)cc1 | 2.01%
66 | COc1ccccc1C(=O)N/C(=C\c1ccc2c(c1)OCO2)C(=O)NCCO | 2.3%
67 | O=C(Nc1ccc(S(=O)(=O)Nc2nccs2)cc1)C1CCCO1 (stereo not shown) | -3.49%
68 | O=C(O)c1ccc(CNCc2ccccc2F)cc1 | -1.05%
69 | CC1(C)CC(=O)C2=C(C1)N(Cc1ccccc1)C(=O)C2(NC(=O)c1cccs1)C(F)(F)F (stereo not shown) | 3.93%
70 | O=C(Cn1c(-c2ccccn2)nc2ccccc21)NCCCn1ccnc1 | -3.33%
71 | CN(Cc1cccc(Cl)c1)C1CCN(C(=O)NCc2ccccc2)CC1 | 0.0882%
72 | Cc1cccc(-c2cc(C(=O)NCc3cnn(C)c3)c3ccccc3n2)c1 | 5.54%
73 | COc1ccc(CCNC(=O)c2ccc(CS(=O)(=O)c3ccccc3)o2)cc1OC | -1.28%
74 | CC[C@@H](C)[C@@H](CS(=O)(=O)N[C@@H](CCc1ccccc1)C(=O)C[N+](=O)[O-])NC(=O)OCc1ccccc1 | -7.36%
75 | Cc1cc(C(=O)Nc2ccccc2C(=O)O)ccc1N | -15.1%

Row | Structure (SMILES) | % Inhibition @ 10 uM
76 | COc1cc2c(C(=O)NCc3ccc(F)cc3)cn(CC(C)C)c(=O)c2cc1OC | -2.49%
77 | COc1ccc(C2CC(C(F)(F)F)n3nc(C(=O)NCc4cn(C)nc4C)c(Cl)c3N2)cc1 (stereo not shown) | 4.3%
78 | Cn1nc(Oc2nc(Cl)nc(NC(C)(C)C)n2)ccc1=O | -6.7%
79 | Cc1cc(NC(=O)CCCOc2ccc(Cl)cc2C)no1 | 2.36%
80 | Cc1cccc(Cn2c(C)c(C)c3cc(C(=O)N4CCOCC4)ccc32)c1 | -1.04%
81 | CCOc1cc2c(cc1OCC)C(c1ccc(O)c(Cl)c1)NCC2 (stereo not shown) | 1.92%
82 | COc1ccc(-c2c(C#N)c(N)n3c(nc4ccccc43)c2C#N)cc1OC | 26.6%
83 | O=C(CCn1ccc2cc(S(=O)(=O)N3CCCC3)ccc21)NCCc1ccccc1 | 7.2%
84 | Cc1cc2ncn(CCCOc3ccccc3)c2cc1C | 1.12%
85 | OCC1CCCN(Cc2ccccc2)C1 (stereo not shown) | -1.5%
86 | CCc1nn(CCCC(=O)N2CCCCCC2)c(=O)c2cc3occc3n12 | 1.38%
87 | O=C1/C(=C/c2ccco2)N=C(N2CCCCC2)N1c1cccc(Cl)c1 | -12.7%
88 | COc1ccc(N2C(=O)C3CC=CC(C)C3C2=O)cc1 (stereo not shown) | -4.67%
89 | Cc1ccc2oc(-c3ccccc3)c/c(=N\CCCCCC(=O)O)c2c1 | 2.24%
90 | CCOc1ccccc1CNCc1c(C(=O)O)n(C)c2cc(OC)ccc12 | 4.41%
91 | Cc1ccc(CN2CCN(c3ncccn3)CC2)cc1 | 4.47%
92 | Sc1nc(-c2ccccc2)nc2c1Cc1ccccc1O2 | 4.16%
93 | CN(C)C(=O)CCC(=O)c1c[nH]c2ccccc12 | -7.96%
94 | Cc1ccc(-c2nnc(SCC(=O)N3CC(C)CC(C)C3)o2)cc1C (stereo not shown) | -2.19%
95 | N#CC1(c2ccccc2)CCN(S(=O)(=O)c2ccc(OC(F)(F)F)cc2)CC1 | -5.08%
96 | CCN1C(=O)CC(C(=O)Nc2ccc(C(=O)O)cc2)S/C1=N\c1cccc(Cl)c1 (stereo not shown) | 1.52%
97 | Cc1nc2ccc(S(=O)(=O)NCC(=O)N3CCC(Cc4ccccc4)CC3)cc2s1 | 4.14%
98 | CC1=C(C(=O)OC(C)C)C(c2ccc(Cl)cc2Cl)CC(=O)N1 (stereo not shown) | -7.98%
99 | CCOc1ccccc1C1C(C#N)=C(N)Oc2cc(N(C)C)ccc21 (stereo not shown) | -5.94%
100 | COc1ccc(-c2cc(-c3ccc(C)cc3)nc(Cl)n2)cc1 | -0.856%
